According to the supplement of paper PMC12217912:
The other results are listed elsewhere or left out. The full chains were built here from the parent and the listed change. Values near 0.05 are background.

B1: TEV protease; numbered along this chain (parent)
chain: MGESLFKGPRDYNPISSSICHLTNESDGHTTSLYGIGFGPFIITNKHLFRRNNGTLVVQSLHGVFKVKDTTTLQQHLVDGRDMIIIRMPKDFPPFPQKLKFREPQREERICLVTTNFQTKSMSSMVSDTSCTFPSGDGIFWKHWIQTKDGQCGSPLVSTRDGFIVGIHSASNFTNTNNYFTSVPKNFMELLTNQEAQQWVSGWRLNADSVLWGGHKVFMVKPEEPFQPVKEATQL

Variants of: B1
Assay: raw area under fraction-flipped curve 0-4 h after induction (AUC4h, not background-subtracted), DNA-recorder readout of cleavage of the substrate (dimensionless); higher = more cleavage of the substrate by the protease variant
Settings: temperature: 34 °C; time window: 0-4 h after rhamnose induction
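Also: Bxb1 expression induced with 0.2% (w/v) L-rhamnose at OD600 near 0.5, cultures sampled hourly, flipped fraction per protease–substrate barcode pair counted by paired-end Illumina sequencing.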

Row | Variant | area with substrate ENLYDQS | area with substrate ENLYIQS | area with substrate ENLYMQS | area with substrate ENLYRQS | area with substrate ENLYVQS | area with substrate ENLYWQS | area with substrate ENLYEQS | area with substrate ENLYHQS | area with substrate ENLYNQS | area with substrate ENLYSQS
1 | MGESLFKGPRDYNPISSSICHLTNESDGHTTSLYGIGFGPFIITNKHLFRRNNGTLVVQSLHGVFKVKDTTTLQQHLVDGRDMIIIRMPKDFPPFPQKLKFREPQREERICLVTTNFQTKSMSSMVSDTSCTFPSGDGIFWKHWIQTKDGQCGSPLVSTRDGFIVGIHSASNFTNTNNYFTSVPKNFMELLTNQEAQPWVSGWRLNADSVLWGGHKVFMVKPEEPFQPVKEATQL [Q198P] | 0.0581 | 0.174 | 0.072 | 0.0586 | 0.0966 | 0.0743 |  |  |  | 
2 | MGESLFKGPRDYNPISSSICHLTNESDGHTTSLYGIGFGPFIITNKHLFRRNNGTLVVQSLHGVFKVKDTTTLQQHLVDGRDMIIIRMPKDFPPFPQKLKFREPQREERICLVTTNFQTKSMSSMVSDTSCTFPSGDGIFWKHWIQTKDGQCGSPLVSTRDGFIVGIHSASNFTNTNNYFTSVPKNFMELLTNQEAQGWVSGWRLNADSVLWGGHKVFMVKPEEPFQPVKEATQL [Q198G] | 0.0608 | 0.0854 |  | 0.0576 | 0.107 | 0.0676 | 0.0678 | 0.0881 | 0.0681 | 0.0643
3 | MGESLFKGPRDYNPISSSICHLTNESDGHTTSLYGIGFGPFIITNKHLFRRNNGTLVVQSLHGVFKVKDTTTLQQHLVDGRDMIIIRMPKDFPPFPQKLKFREPQREERICLVTTNFQTKSMSSMVSDTSCTFPSGDGIFWKHWIQTKDGQCGSPLVSTRDGFIVGIHSASNFTNTNNYFTSVPKNFMELLTNQEAQQQVSGWRLNADSVLWGGHKVFMVKPEEPFQPVKEATQL [W199Q] | 0.0793 | 0.0737 |  |  |  |  | 0.0446 |  | 0.068 | 
4 | MGESLFKGPRDYNPISSSICHLTNESDGHTTSLYGIGFGPFIITNKHLFRRNNGTLVVQSLHGVFKVKDTTTLQQHLVDGRDMIIIRMPKDFPPFPQKLKFREPQREERICLVTTNFQTKSMSSMVSDTSCTFPSGDGIFWKHWIQTKDGQCGSPLVSTRDGFIVGIHSASNFTNTNNYFTSVPKNFMELLTNQEAQQWVSGWRLNADSVLSGGHKVFMVKPEEPFQPVKEATQL [W212S] | 0.0776 |  |  | 0.0576 |  |  | 0.0694 | 0.0614 | 0.0546 | 
5 | MGESLFKGPRDYNPISSSICHLTNESDGHTTSLYGIGFGPFIITNKHLFRRNNGTLVVQSLHGVFKVKDTTTLQQHLVDGRDMIIIRMPKDFPPFPQKLKFREPQREERICLVTTNFQTKSMSSMVSDTSCTFPSGDGIFWKHWIQTKDGQCGSPLVSTRDGFIVGIHSASNFTNTNNYFTSVPKNFMELLTNQEAQQWVSWWRLNADSVLWGGHKVFMVKPEEPFQPVKEATQL [G202W] | 0.0545 | 0.0545 |  |  |  | 0.0339 | 0.0408 | 0.0561 | 0.0661 | 0.0601
6 | MGESLFKGPRDYNPISSSICHLTNESDGHTTSLYGIGFGPFIITNKHLFRRNNGTLVVQSLHGVFKVKDTTTLQQHLVDGRDMIIIRMPKDFPPFPQKLKFREPQREERICLVTTNFQTKSMSSMVSDTSCTFPSGDGIFWKHWIQTKDGQCGSPLVSTRDGFIVGIHSASNFTNTNNYFTSVPKNFMELLTNQEAQQWVSGWRLPADSVLWGGHKVFMVKPEEPFQPVKEATQL [N206P] | 0.0786 |  |  | 0.047 |  |  | 0.0576 |  | 0.0639 | 0.0843
7 | MGESLFKGPRDYNPISSSICHLTNESDGHTTSLYGIGFGPFIITNKHLFRRNNGTLVVQSLHGVFKVKDTTTLQQHLVDGRDMIIIRMPKDFPPFPQKLKFREPQREERICLVTTNFQTKSMSSMVSDTSCTFPSGDGIFWKHWIQTKDGQCGSPLVSTRDGFIVGIHSASNFTNTNNYFTSVPKNFMELLTNQEAQQWVSGWRLNADSVLWTGHKVFMVKPEEPFQPVKEATQL [G213T] | 0.0618 | 0.0666 | 0.0603 | 0.0594 | 0.0633 |  | 0.076 |  |  | 
8 | MGESLFKGPRDYNPISSSICHLTNESDGHTTSLYGIGFGPFIITNKHLFRRNNGTLVVQSLHGVFKVKDTTTLQQHLVDGRDMIIIRMPKDFPPFPQKLKFREPQREERICLVTTNFQTKSMSSMVSDTSCTFPSGDGIFWKHWIQTKDGQCGSPLVSTRDGFIVGIHSASNFTNTNNYFTSVPKNFMELLTNQEAQQWVHGWRLNADSVLWGGHKVFMVKPEEPFQPVKEATQL [S201H] | 0.0648 | 0.0697 | 0.0717 |  |  |  | 0.115 | 0.0544 |  | 0.0842
9 | MGESLFKGPRDYNPISSSICHLTNESDGHTTSLYGIGFGPFIITNKHLFRRNNGTLVVQSLHGVFKVKDTTTLQQHLVDGRDMIIIRMPKDFPPFPQKLKFREPQREERICLVTTNFQTKSMSSMVSDTSCTFPSGDGIFWKHWIQTKDGQCGSPLVSTRDGFIVGIHSASNFTNTNNYFTSVPKNFMELLTNQEAQQWVNGWRLNADSVLWGGHKVFMVKPEEPFQPVKEATQL [S201N] | 0.0664 | 0.108 | 0.0772 | 0.0543 |  | 0.0844 | 0.0612 | 0.0484 | 0.0924 | 
10 | MGESLFKGPRDYNPISSSICHLTNESDGHTTSLYGIGFGPFIITNKHLFRRNNGTLVVQSLHGVFKVKDTTTLQQHLVDGRDMIIIRMPKDFPPFPQKLKFREPQREERICLVTTNFQTKSMSSMVSDTSCTFPSGDGIFWKHWIQTKDGQCGSPLVSTRDGFIVGIHSASNFTNTNNYFTSVPKNFMELLTNQEAIQWVSGWRLNADSVLWGGHKVFMVKPEEPFQPVKEATQL [Q197I] | 0.0676 |  | 0.0494 | 0.0612 | 0.131 |  | 0.0593 | 0.0681 |  | 

Same assay, conditions: temperature: 34 °C; time window: 0-4 h after rhamnose induction

Row | Variant | area with substrate ENLYTQS | area with substrate ENLYKQS | area with substrate ENLYPQS | area with substrate ENLYGQS | area with substrate ENLYQQS | area with substrate ENLYYQS | area with substrate ENLYLQS
11 | MGESLFKGPRDYNPISSSICHLTNESDGHTTSLYGIGFGPFIITNKHLFRRNNGTLVVQSLHGVFKVKDTTTLQQHLVDGRDMIIIRMPKDFPPFPQKLKFREPQREERICLVTTNFQTKSMSSMVSDTSCTFPSGDGIFWKHWIQTKDGQCGSPLVSTRDGFIVGIHSASNFTNTNNYFTSVPKNFMELLTNQEAQGWVSGWRLNADSVLWGGHKVFMVKPEEPFQPVKEATQL [Q198G] | 0.0701 |  |  |  |  |  | 
12 | MGESLFKGPRDYNPISSSICHLTNESDGHTTSLYGIGFGPFIITNKHLFRRNNGTLVVQSLHGVFKVKDTTTLQQHLVDGRDMIIIRMPKDFPPFPQKLKFREPQREERICLVTTNFQTKSMSSMVSDTSCTFPSGDGIFWKHWIQTKDGQCGSPLVSTRDGFIVGIHSASNFTNTNNYFTSVPKNFMELLTNQEAQQQVSGWRLNADSVLWGGHKVFMVKPEEPFQPVKEATQL [W199Q] |  | 0.0757 | 0.056 |  |  |  | 
13 | MGESLFKGPRDYNPISSSICHLTNESDGHTTSLYGIGFGPFIITNKHLFRRNNGTLVVQSLHGVFKVKDTTTLQQHLVDGRDMIIIRMPKDFPPFPQKLKFREPQREERICLVTTNFQTKSMSSMVSDTSCTFPSGDGIFWKHWIQTKDGQCGSPLVSTRDGFIVGIHSASNFTNTNNYFTSVPKNFMELLTNQEAQQWVSGWRLNADSVLSGGHKVFMVKPEEPFQPVKEATQL [W212S] |  |  | 0.0676 | 0.0633 | 0.0654 |  | 
14 | MGESLFKGPRDYNPISSSICHLTNESDGHTTSLYGIGFGPFIITNKHLFRRNNGTLVVQSLHGVFKVKDTTTLQQHLVDGRDMIIIRMPKDFPPFPQKLKFREPQREERICLVTTNFQTKSMSSMVSDTSCTFPSGDGIFWKHWIQTKDGQCGSPLVSTRDGFIVGIHSASNFTNTNNYFTSVPKNFMELLTNQEAQQWVSWWRLNADSVLWGGHKVFMVKPEEPFQPVKEATQL [G202W] |  |  | 0.0629 | 0.0676 |  | 0.0599 | 
15 | MGESLFKGPRDYNPISSSICHLTNESDGHTTSLYGIGFGPFIITNKHLFRRNNGTLVVQSLHGVFKVKDTTTLQQHLVDGRDMIIIRMPKDFPPFPQKLKFREPQREERICLVTTNFQTKSMSSMVSDTSCTFPSGDGIFWKHWIQTKDGQCGSPLVSTRDGFIVGIHSASNFTNTNNYFTSVPKNFMELLTNQEAQQWVSGWRLPADSVLWGGHKVFMVKPEEPFQPVKEATQL [N206P] | 0.0685 |  | 0.0804 |  |  |  | 
16 | MGESLFKGPRDYNPISSSICHLTNESDGHTTSLYGIGFGPFIITNKHLFRRNNGTLVVQSLHGVFKVKDTTTLQQHLVDGRDMIIIRMPKDFPPFPQKLKFREPQREERICLVTTNFQTKSMSSMVSDTSCTFPSGDGIFWKHWIQTKDGQCGSPLVSTRDGFIVGIHSASNFTNTNNYFTSVPKNFMELLTNQEAQQWVSGWRLNADSVLWTGHKVFMVKPEEPFQPVKEATQL [G213T] |  | 0.0232 | 0.0619 |  |  |  | 
17 | MGESLFKGPRDYNPISSSICHLTNESDGHTTSLYGIGFGPFIITNKHLFRRNNGTLVVQSLHGVFKVKDTTTLQQHLVDGRDMIIIRMPKDFPPFPQKLKFREPQREERICLVTTNFQTKSMSSMVSDTSCTFPSGDGIFWKHWIQTKDGQCGSPLVSTRDGFIVGIHSASNFTNTNNYFTSVPKNFMELLTNQEAQQWVHGWRLNADSVLWGGHKVFMVKPEEPFQPVKEATQL [S201H] |  |  |  | 0.0709 |  |  | 0.0921
18 | MGESLFKGPRDYNPISSSICHLTNESDGHTTSLYGIGFGPFIITNKHLFRRNNGTLVVQSLHGVFKVKDTTTLQQHLVDGRDMIIIRMPKDFPPFPQKLKFREPQREERICLVTTNFQTKSMSSMVSDTSCTFPSGDGIFWKHWIQTKDGQCGSPLVSTRDGFIVGIHSASNFTNTNNYFTSVPKNFMELLTNQEAQQWVNGWRLNADSVLWGGHKVFMVKPEEPFQPVKEATQL [S201N] |  | 0.0656 | 0.0438 | 0.0635 | 0.064 |  | 
19 | MGESLFKGPRDYNPISSSICHLTNESDGHTTSLYGIGFGPFIITNKHLFRRNNGTLVVQSLHGVFKVKDTTTLQQHLVDGRDMIIIRMPKDFPPFPQKLKFREPQREERICLVTTNFQTKSMSSMVSDTSCTFPSGDGIFWKHWIQTKDGQCGSPLVSTRDGFIVGIHSASNFTNTNNYFTSVPKNFMELLTNQEAIQWVSGWRLNADSVLWGGHKVFMVKPEEPFQPVKEATQL [Q197I] |  | 0.0525 | 0.0866 | 0.0737 | 0.054 |  | 
